Assay results as given in patent US5278152A, “2-formylbenzylphosphonic acid derivatives useful for the treatment of diseases caused by viruses” (priority 1989, dated 1994).
Read-outs that look alike come from different tables or passages of the source.

Test system: Friend leukemia virus
Type: in vivo, NMRI mice, female
Conditions: for Relative weight of the spleen: day 14 (dosage unit not given)
Experimental: A test for activity of chemotherapeutics for HIV infections in man causes difficulties, since no infection model in laboratory animals yet exists. Infection with other retroviruses therefore has to be resorted to for testing chemotherapeutics. […] In the untreated control animals, a distinct enlargement of the spleen and liver developed as a symptom of the infection in the course of 2 weeks. Treatment was carried out over 10 days, starting 48 hours after the infection. On the 14th day of the experiment, the animals were sacrificed and dissected. The spleen was removed and weighed. As a measurement parameter of the therapeutic activity, the weight of the spleen of the treated animals was related to that of the untreated infection control.
In the case of uninfected adult laboratory mice (20-24 g body weight), the spleen weighed about 1% of the body weight or less, while in the case of infected animals, the spleen attained about 10% of the body weight at the end of the experiment.
The treatment was started 40 h after infection. The substances indicated were administered orally or intraperitoneally once a day. 14 days after infection, the animals were sacrificed by dislocation and the spleens were removed. The weight of the spleens was determined. As a measurement parameter of the therapeutic activity, the weight of the spleen of the animals which had been treated with compounds A and D was related to that of the untreated infection control.
Suramin and azidothymidine (AZT) were used as standard substances.

[1] = ip, 50, once a day over 10 days (dosage unit not given)
[2] = ip, 50, once a day over 10 days

Structure (SMILES): CCOP(=O)(Cc1ccccc1C=O)OCC [A, diethyl 2-formylbenzylphosphonate]
- Survival rate (ip, 25, once a day over 10 days (dosage unit not given)): 90%
- Relative weight of the spleen (ip, 25, once a day over 10 days): 6.27 % of body weight
- Survival rate [1]: 100%
- Relative weight of the spleen [2]: 6.52 % of body weight
- Survival rate (po, 17.5, once a day over 10 days (dosage unit not given)): 100%
- Relative weight of the spleen (po, 17.5, once a day over 10 days): 7.74 % of body weight
- Survival rate (po, 81, once a day over 10 days (dosage unit not given)): 100%
- Relative weight of the spleen (po, 81, once a day over 10 days): 5.67 % of body weight

Structure (SMILES): Cc1cn([C@H]2C[C@H](N=[N+]=[N-])[C@@H](CO)O2)c(=O)[nH]c1=O [AZT, azidothymidine, reference compound]
- Survival rate [1]: 100%
- Relative weight of the spleen [2]: 7.60 % of body weight
- Survival rate (po, 15.5, once a day over 10 days (dosage unit not given)): 100%
- Relative weight of the spleen (po, 15.5, once a day over 10 days): 3.26 % of body weight

Structure (SMILES): CCOP(=O)(Cc1ccccc1C=NNC(N)=S)OCC [D, Diethyl 2-formylbenzylphosphonate thiosemicarbazone]
- Survival rate [1]: 100%
- Relative weight of the spleen [2]: 7.60 % of body weight

Structure (SMILES): Cc1ccc(C(=O)Nc2ccc(S(=O)(=O)O)c3cc(S(=O)(=O)O)cc(S(=O)(=O)O)c23)cc1NC(=O)c1cccc(NC(=O)Nc2cccc(C(=O)Nc3cc(C(=O)Nc4ccc(S(=O)(=O)O)c5cc(S(=O)(=O)O)cc(S(=O)(=O)O)c45)ccc3C)c2)c1 [Suramin, reference compound]
- Survival rate [1]: 70%
- Relative weight of the spleen [2]: 6.06 % of body weight
